Screen size: about 200,000 compounds; about 10 (0.005%) were called active. Inconclusive means that the source gave no clear call. Such entries were picked first, then a sample of the others. The call rests on the fitted dose curve; in most records, active means well fitted inhibition curve with a large enough effect; inconclusive means small, poorly fitted or top-dose-only effect, or effect the other way, or another doubt; inactive means no such curve, though single readings can be large or run the other way. Where the call is inconclusive, the potency comes from a doubtful curve fit.
molecular target: Lysosomal alpha-glucosidase (Homo sapiens) (UniProt P10253); assay: qHTS Assay for Inhibitors of Human alpha-Glucosidase as a Potential Chaperone Treatment of Pompe Disease; conditions: purified human GAA, 4-MU-alpha-glucoside fluorescence; activity change, negative = inhibition: at 76.9 µM (top of the series) unless noted;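 on activity change, negative = inhibition: plate controls were uninhibited enzyme wells for no effect and no-enzyme background for full effect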
Outline: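 Endpoint fluorogenic read: 20 min room-temperature reaction of 4 nM human alpha-glucosidase with 400 uM 4-methylumbelliferyl-alpha-D-pyranoside, pH 5.0, quenched with 1M NaOH/1M glycine pH 10. AC50 from Hill modeling.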
Potency means the concentration at half of the fitted maximal effect; tags describe the fitted curve by direction and shape.

Potency, inactive:
COc1cccc(CNc2ccc(S(=O)(=O)Nc3nccs3)cc2)c1O
COc1ccc(-c2nn(-c3ccccc3)cc2/C=C/C(=O)OCC(=O)Nc2ccc(C#N)cc2)cc1

Potency, inconclusive:
CCCc1cc(NCC2CCCO2)n2c(nc3ccccc32)c1C#N (stereo not drawn) 35.5 µM [activator, partial curve]
Nc1c(S(=O)(=O)c2ccccc2)c2nc3ccccc3nc2n1CCN1CCOCC1 39.8 µM [activator, partial curve]
Cc1cc(C(=O)COC(=O)C2CCN(C(=O)c3ccc(Cl)cc3)CC2)c(C)n1CC1CCCO1 (stereo not drawn) 50.1 µM [inhibitor, single point]
Cc1cc2cc(CCNC(=O)c3ccc(S(=O)(=O)N4CCOCC4)cc3)c(=O)[nH]c2cc1C 44.7 µM [inhibitor, single point]
CCC(=O)Nc1ccccc1C(=O)OCC(=O)c1ccc2ccccc2c1 56.2 µM [inhibitor, single point]
CC(C)Nc1nc(NC(C)C)nc(Oc2ccc(OCc3ccccc3)nn2)n1 11.2 µM [inhibitor, single point]
Fc1ccccc1C1c2[nH]c3ccccc3c2CCN1Cc1ccoc1 (stereo not drawn) 28.2 µM [inhibitor, single point]
Cc1nc(OCc2ccccc2)c2sc3nc4c(cc3c2n1)COC(C)(C)C4 8.91 µM [inhibitor, single point]
CCCCc1nc2ccccc2c(NC(=O)CN(CC)CC)c1CCC 35.5 µM [inhibitor, single point]
O=C(O)c1ccc(NS(=O)(=O)c2cccc3nsnc23)cc1 0.562 µM [inhibitor, single point]
CNC(=O)NC(=O)COC(=O)CCc1nc(=O)c2ccccc2n1C 1.78 µM [inhibitor, full curve]
O=c1c(-c2nnc(SCc3ccc(Cl)c(Cl)c3)o2)cccn1Cc1ccccc1 35.5 µM [activator, partial curve]

Activity change, negative = inhibition, inconclusive:
C=CCOc1ccccc1CNCCNC(=O)c1nonc1N 15.5% [activator]
CCCCN1C=C(C(=O)OC)C(c2ccccc2C(F)(F)F)C(C(=O)OC)=C1 80.6% [activator]
Cc1ccccc1NC(=O)c1ccccc1NC(=O)c1ccco1 -15.9% [inhibitor]
Cc1ccc(OCC(=O)NS(=O)(=O)c2ccccc2)cc1 11.9% [activator]
